The target in assay [1] is endogenous CBP (CREB-binding protein) (mouse (endogenous in rela−/− fibroblasts)), P45481. In words: co-IP; nuclear extracts of RelA(wt/mutants) reconstituted rela−/− cells, unstimulated or stimulated with TNFα (5 ng/ml; 15, 30, 45 min); anti-CBP, anti-p300 or anti-RelA antibody, protein-G beads; immunoblot for RelA or CBP. As to conditions: remark: other sources report otherwise. A general note: A western blot detects proteins with antibodies after separation by electrophoresis.

For assay [2], the target named is endogenous p300 (mouse (endogenous in rela−/− fibroblasts)), B2RWS6. The assay is described as above. The following applies: remark: other sources report otherwise.

These results are taken from paper PMC3760798.

These are yes or no findings as the source states them, for the method shown. In cells and extracts the contact can be indirect. Some entries that bind do so weakly or less than the wild type.

B1: RelA(wt), full length, in reconstituted rela−/− cells, Q04207 1-549 (protein)
chain: MDDLFPLIFPSEPAQASGPYVEIIEQPKQRGMRFRYKCEGRSAGSIPGERSTDTTKTHPTIKINGYTGPGTVRISLVTKDPPHRPHPHELVGKDCRDGYYEADLCPDRSIHSFQNLGIQCVKKRDLEQAISQRIQTNNNPFHVPIEEQRGDYDLNAVRLCFQVTVRDPAGRPLLLTPVLSHPIFDNRAPNTAELKICRVNRNSGSCLGGDEIFLLCDKVQKEDIEVYFTGPGWEARGSFSQADVHRQVAIVFRTPPYADPSLQAPVRVSMQLRRPSDRELSEPMEFQYLPDTDDRHRIEEKRKRTYETFKSIMKKSPFNGPTEPRPPTRRIAVPTRNSTSVPKPAPQPYTFPASLSTINFDEFSPMLLPSGQISNQALALAPSSAPVLAQTMVPSSAMVPLAQPPAPAPVLTPGPPQSLSAPVPKSTQAGEGTLSEALLHLQFDADEDLGALLGNSTDPGVFTDLASVDNSEFQQLLNQGVSMSHSTAEPMLMEYPEAITRLVTGSQRPPDPAPTPLGTSGLPNGLSGDEDFSSIADMDFSALLSQISS
Turning to B1, the binding entry in assay [1] and in assay [2] was “binds” throughout.
